Test results as given in PubChem BioAssay AID1460 (National Center for Advancing Translational Sciences (NCATS), 2008).
Hit rate of the full screen: of about 270,000 compounds, about 5,800 (2.1%) were called active. Inconclusive results, whose numbers are uncertain, are shown with a selection of clear calls. Calls come from the whole dose curve; as a rule, active = well fitted inhibition curve with a large enough effect; inconclusive = small, poorly fitted or top-dose-only effect; inactive = flat fitted curve, though single readings scatter. Potencies beside an inconclusive call are fits to weak or partial responses and may not hold up.

target: Microtubule-associated protein tau (Homo sapiens) (UniProt P10636); assay: qHTS for Inhibitors of Tau Fibril Formation, Thioflavin T Binding; conditions: recombinant tau K18 P301L (four-repeat tau fragment), heparin-induced fibrillization, ThT fluorescence; series mostly up to 57.4 µM; activity, negative = inhibition: at the top concentration; note: nearly all actives have a fitted effect of over 55% in size
In short: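 Heparin-induced (20 uM) aggregation of recombinant human K18 P301L tau, 15 uM unlabeled with 0.24 uM labeled, pH 7 acetate buffer, 6 hr at 37 C with compound. Fibrils quantified by 30 uM ThT fluorescence after 1 hr ambient incubation.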
% is set by controls: 0 for no effect and ±100 for the full control effect; potency is the fitted concentration of half-maximal effect; tags give direction and shape of the fitted curve.

Chain of UniProt P10636 (P10636 whole entry, looked up, the tested form may be a part): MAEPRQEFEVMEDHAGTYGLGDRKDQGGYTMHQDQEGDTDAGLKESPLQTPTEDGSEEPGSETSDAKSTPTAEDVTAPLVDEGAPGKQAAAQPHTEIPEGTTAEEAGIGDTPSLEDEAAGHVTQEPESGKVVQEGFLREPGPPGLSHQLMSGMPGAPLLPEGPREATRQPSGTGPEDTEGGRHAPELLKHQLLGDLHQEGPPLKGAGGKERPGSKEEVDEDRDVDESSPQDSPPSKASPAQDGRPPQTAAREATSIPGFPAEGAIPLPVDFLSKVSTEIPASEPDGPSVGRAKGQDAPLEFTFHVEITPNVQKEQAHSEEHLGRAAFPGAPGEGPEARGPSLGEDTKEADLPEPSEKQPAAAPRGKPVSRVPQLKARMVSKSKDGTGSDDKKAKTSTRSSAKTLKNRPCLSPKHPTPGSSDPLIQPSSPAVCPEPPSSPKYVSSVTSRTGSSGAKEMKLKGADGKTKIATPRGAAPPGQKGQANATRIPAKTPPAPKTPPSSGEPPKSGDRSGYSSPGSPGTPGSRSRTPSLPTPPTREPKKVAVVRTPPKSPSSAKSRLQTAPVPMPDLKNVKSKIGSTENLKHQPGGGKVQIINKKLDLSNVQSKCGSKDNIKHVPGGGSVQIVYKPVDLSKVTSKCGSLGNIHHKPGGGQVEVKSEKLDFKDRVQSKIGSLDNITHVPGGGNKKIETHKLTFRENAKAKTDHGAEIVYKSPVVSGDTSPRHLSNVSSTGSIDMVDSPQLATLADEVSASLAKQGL

SMILES | Potency | activity, negative = inhibition
COc1ccc(/C=C2\SC(=S)N(CC(=O)OCC(=O)Nc3ccc([N+](=O)[O-])cc3OC)C2=O)cc1 | inconclusive: 2.51 µM [inhibitor, partial curve] | –
S=c1nc(C23CC4CC(CC(C4)C2)C3)[nH][nH]1 | – | inactive: -5.09%
CCc1cccc(C)c1NC(=O)c1cnn(-c2ccc(OC)cc2)c1C1CCN(C(=O)OC(C)(C)C)CC1 | inconclusive: 17.8 µM [inhibitor, partial curve] | –
Cc1nn(C2CCS(=O)(=O)C2)c(C)c1C=O (configuration not stated) | – | inactive: 2.03%
COc1cccc(NC(=O)c2sc(NC(=O)c3ccncc3)nc2C)c1 | inconclusive: 39.8 µM [inhibitor, single point] | –
c1ccc(-c2nn3c(Cn4cnc5ccccc54)nnc3s2)cc1 | – | inactive: -18.8%
COC(C(=O)N/N=C(\C)CC(=O)Nc1ccc(N(C)C)cc1)c1ccccc1 (configuration not stated) | inconclusive: 17.8 µM [inhibitor, partial curve] | –
O=C(Nc1ccc2nc(-c3ccco3)[nH]c2c1)c1cccs1 | inconclusive: 5.62 µM [inhibitor, partial curve] | –
O=C(NCCc1csc(-c2ccc(F)cc2)n1)c1cccc(F)c1 | inconclusive: 28.2 µM [inhibitor, single point] | –
COc1ccccc1CNC(=O)C1CCN(S(=O)(=O)c2cn(C)cn2)CC1 | – | inactive: 4.58%
Cc1cc(/C=N/n2cnnc2)c(C)n1-c1ccc(OCc2ccccc2F)cc1 | inconclusive: 17.8 µM [inhibitor, partial curve] | –
COc1cc(Cl)c(C)cc1Nc1nc2ccccc2n2cnnc12 | – | inactive: -7.23%
CCOC(=O)c1ccc(NC(=S)NCCc2ccc(F)cc2)cc1 | – | inactive: 6.35%
CSc1nc2cc(Oc3cccc(Cl)c3Cl)c(Cl)cc2[nH]1 | inconclusive: 15.8 µM [inhibitor, partial curve, poor fit] | –
C/C(Cl)=C/Cn1c(N2CCCC2)nc2c1c(=O)n(C)c(=O)n2C | – | inactive: 0.28%
Cc1ccc(C(=O)CSc2nnc(-c3ccco3)n2Cc2ccccc2)cc1 | – | inactive: -19%
CN(Cc1ccco1)S(=O)(=O)c1nnc(NC(=O)c2ccccc2Cl)s1 | inconclusive: 0.1 µM [inhibitor, full curve] | –
CCN(CC)c1nn2c(=O)c(C(=O)NCc3ccc(N(C)C)cc3)cnc2s1 | – | inactive: -9.51%
O=C(CSc1ccc([N+](=O)[O-])cn1)Nc1ccc2c(c1)OCCO2 | inconclusive: 28.2 µM [inhibitor, single point] | –
CCOC(=O)c1nn(-c2ccc(OC)cc2)c(=O)c2c(N)scc12 | active: 8.91 µM | –
COC(=O)c1cn(NC(=O)c2cc([N+](=O)[O-])ccc2F)c(=O)c2ccccc12 | inconclusive: 35.5 µM [inhibitor, single point] | –
COc1ccc(OC)c2c1C(=O)c1ccccc1C2=O | active: 35.5 µM | –
OCCN1CCN(c2ncnc3c2c(-c2ccccc2)cn3-c2ccc(Br)cc2)CC1 | inconclusive: 31.6 µM [inhibitor, single point] | –
O=c1c2oc3ccccc3c2n(Cc2ccccc2)c(=O)n1Cc1ccco1 | – | inactive: -7.64%

SMILES | Potency | activity, negative = inhibition
CC(C)(C)OC(=O)N1CCC(c2nnc(SCc3ccccc3F)o2)CC1 | inconclusive: 7.94 µM [inhibitor, full curve, poor fit] | –
O=C(Cn1nnc2sc(-c3ccccc3)cc2c1=O)Nc1cccc(C(F)(F)F)c1 | inconclusive: 17.8 µM [inhibitor, single point] | –
CCOc1ccc(CCNc2ncnc3onc(-c4ccc(Cl)cc4)c23)cc1 | – | inactive: 3.37%
CCCCOC(=O)Nc1ccc(N2CCCCC2)cc1 | inconclusive: 8.91 µM [inhibitor, partial curve, poor fit] | –
CCOC(=O)CSC1=C(C#N)C(c2ccc(C)s2)CC(=O)N1 (configuration not stated) | – | inactive: -8.48%
CCn1nnc2cc(C(=O)Nc3ccc(C)cc3Br)ccc21 | inconclusive: 7.94 µM [inhibitor, full curve, poor fit] | –
CCCCc1cc(=O)oc2c(C)c(OCc3nn[nH]n3)ccc12 | – | inactive: -8.06%
Cc1cccc(N(CC(=O)N=Nc2c(O)[nH]c3ccccc23)S(C)(=O)=O)c1C | inconclusive: 28.2 µM [inhibitor, single point] | –
COc1ccc(CCNc2cc(N3CCN(C(=O)c4ccccc4F)CC3)ccc2[N+](=O)[O-])cc1OC | inconclusive: 3.98 µM [inhibitor, full curve] | –
Cc1ccc(S(=O)(=O)N(C)c2ccc(C(=O)N3CCc4ccccc4C3)cc2)cc1 | inconclusive: 39.8 µM [inhibitor, single point] | –
Cc1nn(Cc2ccc(Cl)cc2)c(C)c1NC(=O)c1ccc([N+](=O)[O-])cc1 | – | inactive: -4.7%
O=C(CCCn1c(SCc2cc(=O)n3ccccc3n2)nc2ccccc2c1=O)NCC1CCCO1 (configuration not stated) | – | inactive: -2.2%
CSC1=NCCN1CCOc1ccccc1 | inconclusive: 10 µM [inhibitor, single point] | –
C/C(=N\NC(=S)Nc1ccc(C(C)C)cc1)c1ccc2c(c1)OCO2 | inconclusive: 11.2 µM [inhibitor, partial curve] | –
Cc1ccc(NCc2nnc(SC(C)C(=O)N/N=C/c3ccc(C)o3)n2-c2ccccc2)cc1 (configuration not stated) | inconclusive: 28.2 µM [inhibitor, single point] | –
Cn1c(C(=O)N2CCCCCC2)cc2c(=O)n(C)c3ccccc3c21 | – | inactive: -6.62%
CCn1c(C)c(C)c2cc(C(=O)Nc3cccc(Cl)c3)ccc21 | inconclusive: 11.2 µM [inhibitor, partial curve] | –
O=C1CS/C(=C/C(=O)c2cccc(Cl)c2)N1 | – | inactive: 2.75%
Cc1ccc(S(=O)(=O)c2nnn3c2nc(N2CCC(C)CC2)c2cc(Cl)ccc23)cc1C | inconclusive: 39.8 µM [inhibitor, single point] | –
CC(C)(C)c1ccc(C(=O)NN2C(=O)CSC2=S)cc1 | inconclusive: 17.8 µM [inhibitor, partial curve] | –
COC1(C)CCC2OC2(C)CCC2C1CC2(C)C (configuration not stated) | – | inactive: 3.75%
O=C(CSc1nnc2ccccn12)Nc1ccccc1C(=O)NC1CC1 | – | inactive: 12.4%
CCOC(=O)c1sc2nc3c(SCCC(=O)O)cc(C(=O)c4cc(OC)ccc4O)cn3c(=O)c2c1C | active: 25.1 µM | –
